Screen size: about 39,000 compounds; about 220 (0.56%) showed activity. The list shows a part of the results.
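Note: static incubation at 37 °C against the wild-type strain, values averaged over two biological replicates.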

The subject of the assay is Escherichia coli K-12 BW25113. The assay is described as follows: relative growth (OD600 normalised to plate interquartile mean) (fraction); higher = less growth inhibition, active = 0.2 or less. Conditions: 50 µM; LB; incubation time: overnight (16-24 h).
`COc1cccc(CN(C)C[C@@H]2OCc3ccccc3-c3c(n(C)c4ccccc34)C(=O)N([C@@H](C)CO)C[C@H]2C)c1`: the relative growth is inactive: 1.01.

Turning to `CC=Cc1ccc2n(c1=O)C[C@@H]1[C@@H](CO)[C@H](C(=O)NCC)[C@H]2N1S(=O)(=O)c1cn(C)cn1`, the relative growth was inactive: 0.971. For the compound `CC(C)NC(=O)Nc1ccc2c(c1)C(=O)N([C@H](C)CO)C[C@H](C)[C@H](CN(C)C(=O)Nc1ccc(C(F)(F)F)cc1)OCCCC[C@H](C)O2`, the relative growth is inactive: 0.999. The result for `O=C(N[C@@H](c1ccccc1)c1ccc2ccccc2n1)C1CCN(CCOc2ccc(Cl)cc2Cl)CC1` reads inactive: 0.992; that for `C[C@@H]1CN([C@@H](C)CO)C(=O)c2cc(NC(=O)Cc3ccccc3)ccc2O[C@@H]1CN(C)C(=O)Nc1cccc2ccccc12`, inactive: 1.01.

As to `CC[C@H]1OC(=O)[C@H](C)[C@@H](O[C@H]2C[C@@](C)(OC)[C@@H](O)[C@H](C)O2)[C@H](C)[C@@H](O[C@@H]2O[C@H](C)C[C@H](N(C)C)[C@H]2O)[C@](C)(O)C[C@@H](C)[C@@H]2N[C@@H](COCCOC)O[C@H]([C@H]2C)[C@]1(C)O`, the relative growth is inactive: 0.469. The figure for `Cc1cc(=O)n2c3ccccc3n(C[C@@H](O)CN3CCN(CCO)CC3)c2c1C#N` is inactive: 0.996. In the case of `CO[C@H]1CN(C)C(=O)c2ccc(NS(=O)(=O)CC(F)(F)F)cc2OC[C@H](C)N(Cc2nccs2)C[C@H]1C`, the relative growth is inactive: 0.987. With `C[C@@H]1CN([C@@H](C)CO)C(=O)c2cccc(NC(=O)c3ccc(-c4nccs4)cc3)c2O[C@@H]1CN(C)Cc1ccc(C(F)(F)F)cc1`, the relative growth was inactive: 0.975. The figure for `COC(=O)C[C@H]1CC[C@H]2[C@@H](COc3ccc(NS(=O)(=O)c4ccccc4Cl)cc3C(=O)N2C)O1` is inactive: 0.985; for `COC(=O)C1=CO[C@@H](O[C@@H]2O[C@H](CO)[C@@H](O)[C@H](O)[C@H]2O)[C@@H]2[C@@H](CO)C=C[C@H]12` it is inactive: 1.01; for `C[C@H]1CN([C@@H](C)CO)C(=O)c2cccc(NC(=O)NC3CCCCC3)c2O[C@H]1CN(C)Cc1ccc(C(=O)Nc2ccccc2N)cc1` it is inactive: 1.01. As for `C[C@@H]1CN([C@@H](C)CO)C(=O)c2cc(NC(=O)Nc3ccc(C(F)(F)F)cc3)ccc2O[C@@H](C)CCCCO[C@H]1CN(C)CC1CCCCC1`, the relative growth is inactive: 0.985.

Take `C[C@H]1CN([C@@H](C)CO)C(=O)Cc2cc(NS(=O)(=O)c3cn(C)cn3)ccc2O[C@H]1CN(C)Cc1ccccc1`: the relative growth was inactive: 0.994.

In the case of `C[C@@H]1CN([C@@H](C)CO)C(=O)c2cccc(NC(=O)Nc3ccc(F)cc3)c2O[C@@H]1CN(C)C(=O)Nc1cccc2ccccc12`, the relative growth was inactive: 1.03.

As to `CS(=O)(=O)N1[C@@H]2Cn3c(ccc(-c4cccc(F)c4)c3=O)[C@H]1[C@@H](C(=O)N1CCOCC1)[C@@H]2CO`, the relative growth was inactive: 0.992.

With `O=C(NCc1ccccc1)OCCO`, the relative growth was inactive: 1.08. The figure for `COCC(=O)N1C[C@@H](C)[C@@H](OC)CN(C)C(=O)c2ccc(NC(=O)Nc3ccccc3)cc2OC[C@@H]1C` is inactive: 0.982; for `C[C@@H]1CN([C@@H](C)CO)C(=O)c2cc(NC(=O)CCCN(C)C)ccc2O[C@H]1CN(C)Cc1ccc2c(c1)OCO2` it is inactive: 0.956; for `C[C@@H]1CCCCO[C@@H](CN(C)C(=O)c2ccccc2)[C@H](C)CN([C@H](C)CO)C(=O)c2cc(NC(=O)C3CCCCC3)ccc2O1` it is inactive: 1.02. The figure for `COc1ccc(NC(=O)N(C)C[C@H]2Oc3ccc(NS(=O)(=O)c4cn(C)cn4)cc3CC(=O)N([C@H](C)CO)C[C@@H]2C)cc1` is inactive: 1.02; for `C[C@H]1CN([C@@H](C)CO)C(=O)c2cc(C3=CCCC3)cnc2O[C@@H]1CN(C)C(=O)c1ccc2c(c1)OCO2` it is inactive: 0.97.

Regarding `CC1CC=CC=CC=CC=CC(OC2OC(C)C(O)C(N)C2O)CC2OC(O)(CC(O)CC3OC3C=CC(=O)O1)CC(O)C2C(=O)O` (centres undefined), the relative growth was inactive: 1.14. With `C[C@@H](NC=C1C(=O)OC(C)(C)OC1=O)C(=O)O`, the relative growth is inactive: 0.963. The figure for `CCCNC(=O)N[C@@H]1CC[C@H](CC(=O)N2CCN(C)CC2)O[C@H]1CO` is inactive: 1.02. The result for `C[C@H]1CCCCO[C@@H](CN(C)C(=O)Nc2ccc3c(c2)OCO3)[C@@H](C)CN([C@@H](C)CO)C(=O)c2cc(NC(=O)NC3CCCCC3)ccc2O1` reads inactive: 1.02; that for `C[C@@H]1CN([C@@H](C)CO)C(=O)Cc2cc(NS(=O)(=O)c3ccc(Cl)cc3)ccc2O[C@@H]1CN(C)Cc1ccc(C(=O)Nc2ccccc2N)cc1`, inactive: 0.853; that for `C[C@@H]1CCCCO[C@H](CN(C)C(=O)Cc2ccccc2)[C@@H](C)CN([C@H](C)CO)C(=O)c2cc(NC(=O)Nc3ccc(C(F)(F)F)cc3)ccc2O1`, inactive: 0.997. On to `C[C@H]1CN([C@@H](C)CO)C(=O)c2cccc(NS(=O)(=O)c3ccccc3)c2O[C@@H]1CN(C)Cc1ccncc1`, for which the relative growth is inactive: 0.993.

`C[C@H]1CN([C@@H](C)CO)C(=O)c2ccccc2-c2ccccc2CO[C@@H]1CN(C)S(=O)(=O)c1ccc(C(F)(F)F)cc1`: the relative growth is inactive: 1.01.

Turning to `C[C@@H]1CCCCO[C@@H](CN(C)S(=O)(=O)c2ccc(F)cc2)[C@H](C)CN([C@H](C)CO)C(=O)c2cc(NS(C)(=O)=O)ccc2O1`, the relative growth is inactive: 1.03. The figure for `COc1ccc(S(=O)(=O)N(C)C[C@H]2Oc3ncc(C#CC4(O)CCCC4)cc3C(=O)N([C@@H](C)CO)C[C@@H]2C)cc1` is inactive: 0.982. Take `Cc1cc2c(cc1C)CSC(c1ccccc1)SC2`: the relative growth was inactive: 0.992. With `C[C@@H]1CN([C@@H](C)CO)C(=O)CCCn2nncc2CO[C@@H]1CN(C)S(=O)(=O)c1ccc(-c2ccccc2)cc1`, the relative growth is inactive: 1.01. The figure for `O=C(C[C@@H]1C=C[C@@H](NC(=O)C2CCC2)[C@@H](CO)O1)NCCCN1CCOCC1` is inactive: 0.993. `CC(C)/C(=N/O)c1ccccc1`: the relative growth is inactive: 0.962.

Consider `O=C(N[C@@H]1C=C[C@H](CC(=O)N2CCOCC2)O[C@H]1CO)c1ccc2c(c1)OCO2`, for which the relative growth is inactive: 1.01. The result for `COCC#Cc1cnc2c(c1)C(=O)N([C@H](C)CO)C[C@@H](C)[C@H](CN(C)C(=O)c1cnccn1)O2` reads inactive: 0.982; that for `Cc1ccc(S(=O)(=O)O)cc1.NC1CCN(c2nc3c(cc2F)c(=O)c(C(=O)O)cn3-c2ccc(F)cc2F)C1.O` (centres undefined), active: 0.0925. In the case of `Fc1ccccc1[C@H]1Nc2ccc3ccccc3c2[C@H]2C=CC[C@@H]21`, the relative growth is inactive: 1.02. As for `C[C@H]1CN([C@@H](C)CO)C(=O)c2cccc(NS(=O)(=O)c3ccccc3)c2O[C@H]1CN(C)Cc1ccncc1`, the relative growth was inactive: 0.986. The figure for `C[C@H]1CN([C@@H](C)CO)C(=O)c2cccc(NS(=O)(=O)c3ccc(Cl)cc3)c2O[C@@H]1CN(C)Cc1ccc(C(=O)Nc2ccccc2N)cc1` is inactive: 0.987. Take `Cc1noc(C)c1S(=O)(=O)Nc1ccc2c(c1)CC(=O)N([C@@H](C)CO)C[C@@H](C)[C@H](CN(C)S(=O)(=O)c1ccc(Cl)cc1)O2`: the relative growth was inactive: 1.06. As for `C[C@H](CO)N1C[C@H](C)[C@@H](CN(C)C(=O)Nc2ccc(N3CCN(C)CC3)cc2)OCc2cnnn2CCCC1=O`, the relative growth was inactive: 0.994.

For `C[C@H](CO)N1C[C@H](C)[C@@H](CN(C)S(=O)(=O)c2ccc(Cl)cc2)Oc2ccc(NS(=O)(=O)c3cn(C)cn3)cc2C1=O`, the relative growth was inactive: 0.982. The figure for `C[C@H]1CN([C@@H](C)CO)C(=O)c2cccc(NC(=O)Nc3cccc4ccccc34)c2O[C@H]1CN(C)C(=O)NC1CCCCC1` is inactive: 1.01; for `CC(C)NC(=O)[C@@]1(C)c2ccccc2C(=O)N(Cc2ccc(OC(F)(F)F)cc2)[C@H]1c1ccc(CO)cc1` it is inactive: 1.02; for `COc1ccccc1S(=O)(=O)N[C@H]1C=C[C@H](CC(=O)N2CCN(C)CC2)O[C@H]1CO` it is inactive: 0.978.

On to `CS(=O)(=O)NC[C@@H]1OC[C@@H]2CCN(C(=O)c3ccnnc3)C[C@@H]21`, for which the relative growth is inactive: 1.02. The result for `C[C@H](CO)N1C[C@H](C)[C@@H](CN(C)Cc2ccc(Oc3ccccc3)cc2)Oc2ncc(-c3cccnc3)cc2C1=O` reads inactive: 1.01. For `CO[C@H]1CN(C)C(=O)c2ccc(NS(C)(=O)=O)cc2OC[C@@H](C)N(S(C)(=O)=O)C[C@@H]1C`, the relative growth was inactive: 1.03.

Consider `C[C@H]1CN([C@@H](C)CO)C(=O)Cc2cc(NS(=O)(=O)c3cccs3)ccc2O[C@H]1CN(C)Cc1ccc(Cl)c(Cl)c1`, for which the relative growth is inactive: 1.01. As to `C[C@@H]1CN([C@H](C)CO)C(=O)c2cc(NS(=O)(=O)c3ccccc3)ccc2O[C@@H]1CN(C)S(C)(=O)=O`, the relative growth is inactive: 0.996. The result for `COc1ccc(S(=O)(=O)N(C)C[C@H]2OCCCC[C@H](C)Oc3ccc(NC(=O)CCC(F)(F)F)cc3C(=O)N([C@H](C)CO)C[C@@H]2C)cc1` reads inactive: 0.997; that for `CO[C@@H](CN(C)C(=O)c1ccc2c(c1)OCO2)[C@H](C)CN([C@@H](C)CO)S(=O)(=O)c1ccc(C)cc1`, inactive: 1.01. `CN1CCN(C(=O)C[C@H]2CC[C@@H]3[C@@H](COc4ccc(NC(=O)c5ccc(F)c(F)c5)cc4C(=O)N3C)O2)CC1`: the relative growth is inactive: 1.01. The figure for `C[C@@H]1CN([C@@H](C)CO)C(=O)c2cc(NC(=O)C3CCCCC3)ccc2O[C@@H](C)CCCCO[C@@H]1CN(C)C(=O)CCC(F)(F)F` is inactive: 0.988; for `CCSC(=N)N` it is inactive: 0.964. The figure for `CC[C@@H](C)[C@H]1O[C@@]2(CC[C@@H]1C)C[C@H]1C[C@@H](CC=C(C)[C@@H](O[C@H]3C[C@@H](OC)[C@@H](O[C@H]4C[C@@H](OC)[C@@H](O)[C@@H](C)O4)[C@@H](C)O3)[C@@H](C)C=CC=C3CO[C@H]4[C@@H](O)C(C)=C[C@@H](C(=O)O1)[C@]34O)O2.CO[C@H]1C[C@@H](O[C@@H]2[C@@H](OC)C[C@@H](O[C@@H]3C(C)=CC[C@@H]4C[C@@H](C[C@@]5(CC[C@@H](C)[C@H](C(C)C)O5)O4)OC(=O)[C@@H]4C=C(C)[C@H](O)[C@@H]5OCC(=CC=C[C@@H]3C)[C@@]45O)O[C@@H]2C)O[C@@H](C)[C@@H]1O` is inactive: 1.

The values above are taken from the supplement of paper PMC9446081.
